The whole screen tested about 310,000 compounds, of which about 14,000 (4.5%) showed an effect of 50% or more. Effects have a minus sign here. This is one part of the list.
The compounds below were run against human ether-à-go-go-related gene (hERG) potassium channel (human, UniProt Q12809) (assay: primary screen, population patch clamp on CHO cells stably expressing hERG).
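Also: peak tail current of the secondary pulse compared with the same well before compound.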

Sequence of human ether-à-go-go-related gene (hERG) potassium channel (Q12809 whole entry, looked up): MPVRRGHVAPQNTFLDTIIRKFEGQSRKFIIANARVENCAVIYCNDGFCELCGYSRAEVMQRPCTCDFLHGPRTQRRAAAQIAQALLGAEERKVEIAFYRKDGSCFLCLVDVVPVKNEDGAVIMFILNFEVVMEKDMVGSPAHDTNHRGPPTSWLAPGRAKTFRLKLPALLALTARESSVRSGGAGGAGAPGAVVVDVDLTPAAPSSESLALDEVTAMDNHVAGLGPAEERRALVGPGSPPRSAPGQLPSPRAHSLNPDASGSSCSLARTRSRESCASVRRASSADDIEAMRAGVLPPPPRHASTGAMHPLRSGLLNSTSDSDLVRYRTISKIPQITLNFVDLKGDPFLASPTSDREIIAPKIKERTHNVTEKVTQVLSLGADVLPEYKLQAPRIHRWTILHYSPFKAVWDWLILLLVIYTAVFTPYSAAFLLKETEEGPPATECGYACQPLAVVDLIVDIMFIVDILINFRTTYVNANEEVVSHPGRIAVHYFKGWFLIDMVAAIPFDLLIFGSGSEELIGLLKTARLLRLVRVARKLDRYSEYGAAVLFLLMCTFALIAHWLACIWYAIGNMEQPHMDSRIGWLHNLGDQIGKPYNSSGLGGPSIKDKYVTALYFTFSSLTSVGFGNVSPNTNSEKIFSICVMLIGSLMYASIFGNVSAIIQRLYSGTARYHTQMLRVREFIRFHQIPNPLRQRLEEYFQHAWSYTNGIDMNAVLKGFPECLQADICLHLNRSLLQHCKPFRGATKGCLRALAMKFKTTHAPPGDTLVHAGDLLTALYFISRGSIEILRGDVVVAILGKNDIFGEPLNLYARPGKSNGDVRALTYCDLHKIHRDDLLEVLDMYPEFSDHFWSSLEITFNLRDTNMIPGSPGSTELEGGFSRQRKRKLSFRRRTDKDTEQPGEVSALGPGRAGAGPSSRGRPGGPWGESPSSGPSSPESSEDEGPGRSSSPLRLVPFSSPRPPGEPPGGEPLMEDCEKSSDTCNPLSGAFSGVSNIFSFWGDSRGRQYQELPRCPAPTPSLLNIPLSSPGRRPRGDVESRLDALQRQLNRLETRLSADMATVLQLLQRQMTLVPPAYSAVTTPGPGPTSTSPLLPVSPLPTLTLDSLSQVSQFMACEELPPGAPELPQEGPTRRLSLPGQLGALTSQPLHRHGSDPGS

SMILES	hERG current change (%, negative = inhibition) at 10uM [%]
O=C1CCc2cc(S(=O)(=O)N3CCC(C(=O)NC4CCCCCCC4)CC3)ccc2N1	10.8
CC(C)c1cccc(C(C)C)c1NC(=O)CN1C(=O)NC2(CCCCCCC2)C1=O	-1.05
COc1ccccc1NC(=O)/C(=N/OCc1ccc(F)cc1)C(C)=O	-16.4
O=C(Nc1ccc(N2CCOCC2)c(Cl)c1)c1ccc(-n2cnnc2)cc1	2.2
CS(=O)(=O)N(CC(=O)NC1CCCCC1)Cc1ccc(Cl)cc1	3.78
O=C(NCCc1nc(-c2ccccc2Cl)no1)c1ccccc1	-1.07
Cc1ccc(CCNS(=O)(=O)c2cc(Br)cnc2N)cc1	5.97
CCNC(=O)CC1C(=O)N(c2cccc(C)c2)C(=O)N1CCC(C)C (centres unmarked)	-75
O=C(NC(Cc1c[nH]c2ccccc12)C(=O)O)/C(=C\c1ccc2c(c1)OCO2)NC(=O)c1ccccc1 (centres unmarked)	-7.13
COC(=O)c1ccc(C)c(NS(=O)(=O)c2ccc3c(c2)OCCO3)c1	-26.8
COc1cc(C)ccc1OCCCON1C(=O)CCC1=O	7.61
CCc1ccc(C(C)(O)C(CN2CCOCC2)c2ccccc2)cc1.Cl (centres unmarked)	-14.8
CCc1ccccc1NC(=S)/N=C(\N)Nc1nc(C)c2cc(C)ccc2n1	-9.49
COc1ccc(Nc2ncnc3c2cnn3-c2ccccc2)cc1OC	9.45
CN(C)C=O.COc1ccc(NC(=O)COC(=O)c2cc(OC)c(OC)cc2NC(=O)c2ccco2)cc1OC	14.2
Nc1nc2c(ncn2C2C[C@H](O)[C@@H](CO)O2)c(=O)[nH]1 (some centres unmarked)	14.4
CC(=O)C(Cc1cnc(Cl)s1)(Cc1cnc(Cl)s1)C(C)=O	-4.31
O=C(NCC(=O)N(c1cccc(F)c1)C(C(=O)NC1CCCC1)c1ccncc1)c1ccco1 (centres unmarked)	17.8
COc1cc(C)ccc1OCCOCCOc1cc(C)c(C)cc1Br	1.45
COc1ccc(OC)c(/C=N/NC(=O)c2csc3ccccc23)c1	1.24
Cc1ccc(Cn2ccc(NC(=O)c3cc(CC(C)C)on3)n2)cc1	-8.08
CC(=O)Nc1ccc(NC(=O)C(C)OC(=O)c2ccc3ccccc3n2)cc1 (centres unmarked)	14.6

SMILES	hERG current change (%, negative = inhibition) at 10uM [%]
COC(=O)c1ccccc1NC(=O)Cn1cnc2c(cnn2-c2ccccc2)c1=O	2.17
Cc1ccc(-c2ccc(=O)n(Cc3ccc(F)cc3Cl)n2)cc1	18.1
CC1(C)N(O)C2CCCCC2N1O (centres unmarked)	4.45
O=C(c1cc2cc(Br)cc(Br)c2oc1=O)N1CCCC1	-9.98
Cc1cccc(COCC(Cc2ccccc2)N2CCN(C(=O)c3cc(Cl)cc(Cl)c3)CCC2=O)c1 (centres unmarked)	-29.4
Cc1ccc(S(=O)(=O)n2nc(-c3cccnc3)nc2N)cc1	13.3
NS(=O)(=O)c1ccc(NC(=O)COC(=O)c2cn(-c3ccccc3)nc2-c2ccc(F)cc2)cc1	5.85
CCC(C)(C)NC(=O)CN(Cc1cccs1)C(=O)C(=O)Nc1ccc2c(c1)OCCO2	-12.9
CC1(C)Cc2c(c(N3CCOCC3)nc3sc(C(=O)Nc4ccccc4)c(N)c23)CO1	-0.852
O=c1cc(CN2CCN(S(=O)(=O)c3ccc4ccccc4c3)CC2)nc2sccn12	-25.2
c1ccc2c(C3CCO3)cccc2c1 (centres unmarked)	13.3
CCN(CC(=O)Nc1c(F)cccc1F)C(=O)CCC(=O)c1ccc(C)cc1	-9.14
O=C(NNS(=O)(=O)c1ccccc1)C(O)(c1ccccc1)c1ccccc1	7.23
C/C(=N/NC(=S)Nc1cccc(C)c1)c1cccc([N+](=O)[O-])c1	-11.4
O=S(=O)(c1ccccc1)c1cnc(-c2ccccc2)nc1N1CCCC1	41.8
Cl.Clc1ccc(CN2CCNCC2)cc1	0.541
N/C(=N\OC(=O)/C=C/c1ccccc1)c1ccncc1	-52.3
O=C(N/C(=C/c1ccccc1Cl)C(=O)N1CCCCC1)c1ccco1	13.5
COC(=O)/C=C1\N/C(=N\c2nc(C)cc(C)n2)N(c2ccc(C)cc2)C1=O	-46
NC(=O)c1ccc(N=Cc2c(O)n(Cc3ccco3)c(=O)[nH]c2=O)cc1	13.4
COc1ccc(NC(=O)C2CCN(c3nc(C)cc(C)n3)CC2)cc1	-2.14
CC(=O)c1c(C)[nH]c(C(=O)CSc2ncnc3sc(-c4ccccc4)cc23)c1C	1.3

Source: article PMC4336329 (PLoS ONE, 2015)
